# Data: patent US20230348881A1 (ONCHILLES PHARMA, published 2023)
# B1: wild-type recombinant PPE proprotein (pro-rPPE) with a C-terminal his-tag (enzyme)
# chain: TQDFPETNARVVGGTEAQRNSWPSQISLQYRSGSSWAHTCGGTLIRQNWVMTAAHCVDRELTFRVVVGEHNLNQNDGTEQYVGVQKIVVHPYWNTDDVAAGYDIALLRLAQSVTLNSYVQLGVLPRAGTILANNSPCYITGWGLTRTNGQLAQTLQQAYLPTVDYAICSSSSYWGSTVKNSMVCAGGDGVRSGCQGDSGGPLHCLVNGQYAVHGVTSFVSRLGCNVTRKPTVFTRVSAYISWINNVIASN
# notes: also called wild-type PPE proprotein; WT PPE proprotein; not shown: C-terminal his-tag
# Biological target: T1, alpha-1 antitrypsin (A1AT) (human, UniProt P01009)
# T1 construct: also called Serpin A1AT
# Assay: incubation with A1AT for 30 min at room temperature, Ni-Sepharose purification of his-tagged pro-rPPE, trypsin activation, colorimetric activity assay; inset immunoblot for A1AT
# Protocol: To test binding to the Serpin A1AT, the wild-type PPE proprotein (pro-rPPE) with a C-terminal his-tag was incubated in the presence/absence of a 20-fold excess of A1AT for 30 minutes at room temperature. After incubation, pro-rPPE was purified by Ni-Sepharose beads. Purified pro-rPPE was then treated with trypsin for 2 hours at 37° C. to activate the enzyme, and catalytic activity was assessed using a colorimetric activity assay. As a control, pro-rPPE was first activated with trypsin to generate active rPPE and then taken through an identical A1AT-binding/purification procedure. […] In contrast, the protease activity of activated rPPE was attenuated by A1AT when subjected to an identical procedure.
# T1 sequence (P01009 25-418 limits assumed): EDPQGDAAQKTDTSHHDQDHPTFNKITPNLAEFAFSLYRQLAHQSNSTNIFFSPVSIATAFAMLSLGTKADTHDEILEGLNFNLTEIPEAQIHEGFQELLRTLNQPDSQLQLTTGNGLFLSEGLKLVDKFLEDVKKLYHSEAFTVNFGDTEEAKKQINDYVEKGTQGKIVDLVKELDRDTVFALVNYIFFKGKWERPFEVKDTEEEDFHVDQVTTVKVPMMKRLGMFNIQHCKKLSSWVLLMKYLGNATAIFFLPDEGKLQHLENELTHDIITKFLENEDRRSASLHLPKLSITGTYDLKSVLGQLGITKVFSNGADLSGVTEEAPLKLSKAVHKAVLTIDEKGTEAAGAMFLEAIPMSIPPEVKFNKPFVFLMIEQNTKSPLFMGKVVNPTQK
binder,measurement,value
B1,binding result,no binding (tested: 20-fold excess of A1AT)
